# PubChem BioAssay (Tox21)
# Inconclusive results, whose numbers are uncertain, are shown with a selection of clear calls. Potencies of inconclusive entries are doubtful fits and often do not repeat. Activity calls are given as the source filed them. Unless noted, the call rests on the fitted dose curve.
# Columns and labels:
# [1] = biological target: Peroxisome proliferator-activated receptor gamma (Homo sapiens) (UniProt P37231); assay: qHTS assay to identify small molecule antagonists of the peroxisome proliferator-activated receptor gamma (PPARg) signaling pathway (AID 743191); conditions: HEK293H PPARg-UAS-bla, beta-lactamase ratio, antagonist, 17 h; ratio activity, negative = inhibition: at 62.6 µM (top of the series) unless noted; further: nearly all actives have a fitted effect of over 30% in size
# In short: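 Beta-lactamase reporter under UAS control in HEK293H PPARg-bla cells; compound treatment 17 h at 37C. Read-out: fluorescence intensity after 1 h room-temperature incubation with LiveBLAzer B/G FRET substrate.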
# [2] = qHTS assay for small molecule agonists of the antioxidant response element (ARE) signaling pathway (AID 743202; active means well fitted activation curve with a large enough effect in the signal ratio in the repeat runs, not every such curve was filed as active; inconclusive means weak or mixed curves, or effect the other way; inactive means no such curve, though single readings can be large or run the other way; the % refers to the signal ratio); conditions: HepG2 ARE-bla reporter, beta-lactamase FRET, 16 h; activation: at 73.3 µM (top of the series) unless noted
# In short: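 Beta-lactamase reporter activity, read as fluorescence intensity, reflects ARE/Nrf2 pathway induction in HepG2 cells after 16 h compound exposure at 37 C; substrate loading was 2 h at room temperature.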
# [3] = qHTS assay for small molecule activators of the heat shock response signaling pathway (AID 743210; active means well fitted activation curve with a large enough effect in the signal ratio in the repeat runs, with a control signal flat, not every such curve was filed as active; inconclusive means weak or mixed curves; the % refers to the signal ratio;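 on activation: HeLa cells with beta-lactamase reporter driven by heat shock elements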); conditions: HeLa HSE-bla reporter, beta-lactamase ratio, 5 h; activation: at 62.6 µM (top of the series) unless noted
# In short: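 Fluorescence from a cleaved B/G FRET substrate (2.5 h, room temp) reports HSE-driven beta-lactamase in HeLa cells treated 5 h at 37 C with DMSO-dissolved compounds.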
# [4] = qHTS assay to identify small molecule agonists of the peroxisome proliferator-activated receptor delta (PPARd) signaling pathway - cell viability counter screen (AID 743211; active means well fitted curve in the direction sought with a large enough effect in the repeat runs; inconclusive means weak or mixed curves; inactive means no such curve, though single readings can be large; an effect the other way counts as inactive or inconclusive; further: nearly all actives have a fitted effect of over 55% in size); conditions: PPARd-bla HEK293H viability, CellTiter-Glo luminescence, 17 h; activity change, negative = cytotoxicity: at 62.6 µM (top of the series)
# In short: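 Multiplexed format: after the 2 h room-temperature LiveBLAzer B/G FRET step, CellTiter-Glo was added to the same wells. Luminescence after 30 min gave cell viability; compound exposure was 17 h at 37C.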
# [5] = qHTS assay for small molecule activators of the heat shock response signaling pathway - cell viability counter screen (AID 743209; active means well fitted curve in the direction sought with a large enough effect in the repeat runs; inconclusive means weak or mixed curves; inactive means no such curve, though single readings can be large; an effect the other way counts as inactive or inconclusive; further: nearly all actives have a fitted effect of over 50% in size); conditions: HSE-bla HeLa viability, CellTiter-Glo luminescence, 5 h; activity change, negative = cytotoxicity: at 62.6 µM (top of the series) unless noted
# In short: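 Same-well multiplex: after 2.5 h room-temperature incubation with LiveBLAzer B/G substrate and fluorescence reading, CellTiter-Glo reagent was added to HSE-bla HeLa cells that had received compound for 5 h at 37 C; luminescence read after 30 min.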
# [6] = qHTS assay for small molecule agonists of the antioxidant response element (ARE) signaling pathway - cell viability counter screen (AID 743203); conditions: ARE-bla HepG2 viability, CellTiter-Glo luminescence, 16 h; viability change, negative = cytotoxic: at 73.3 µM (top of the series); further: nearly all actives have a fitted effect of over 55% in size
# In short: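 Measured in the same wells as the beta-lactamase ARE reporter, this read-out is CellTiter-Glo luminescence from HepG2 ARE-bla cells given compounds for 16 hrs.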
# On the % scale 0 is the no-effect control and ±100 the full control effect; potency means the concentration at half of the fitted maximal effect; tags describe the fitted curve by direction and shape or compound fluorescence and quenching.
# Chain of UniProt P37231 (P37231 whole entry, looked up): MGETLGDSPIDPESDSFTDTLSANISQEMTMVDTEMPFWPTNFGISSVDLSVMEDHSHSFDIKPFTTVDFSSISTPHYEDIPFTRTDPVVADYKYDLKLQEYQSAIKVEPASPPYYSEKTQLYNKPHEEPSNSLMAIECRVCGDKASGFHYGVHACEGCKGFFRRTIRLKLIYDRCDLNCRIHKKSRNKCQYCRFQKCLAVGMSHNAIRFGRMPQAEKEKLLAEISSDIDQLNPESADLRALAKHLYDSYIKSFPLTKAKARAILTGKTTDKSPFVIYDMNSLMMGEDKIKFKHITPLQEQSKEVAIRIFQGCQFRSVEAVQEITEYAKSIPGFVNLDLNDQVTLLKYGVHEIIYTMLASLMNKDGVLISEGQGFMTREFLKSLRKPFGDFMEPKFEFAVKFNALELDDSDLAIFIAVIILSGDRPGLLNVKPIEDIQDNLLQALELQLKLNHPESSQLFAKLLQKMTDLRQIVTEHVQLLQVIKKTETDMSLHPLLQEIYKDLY
smiles,measurement,setting,value
C=C(C)C(=O)OCCCCCCCCCC,Potency,[1],inactive
same,Potency,[2],inactive
same,Potency,[3],inconclusive: 55.3 µM [single point]
same,Potency,[4],"inconclusive: 55.3 µM [cytotoxic, single point]"
NC(=O)NS(=O)(=O)c1ccc(N)cc1,Potency,[1],inactive
same,Potency,[2],inactive
same,Potency,[3],inactive
O=C(/C=C/c1ccc([N+](=O)[O-])cc1)c1ccccc1,Potency,[1],inactive
same,Potency,[2],inactive
same,Potency,[5],"inconclusive: 55.1 µM [cytotoxic, single point]"
same,Potency,[4],"inconclusive: 55.1 µM [cytotoxic, single point]"
CCCCCC=CCC=CCCCCCCCC(=O)OCC,Potency,[1],active: 29.8 µM
same,Potency,[2],inconclusive: 26.6 µM
same,Potency,[5],"inconclusive: 33.5 µM [cytotoxic, partial curve, poor fit]"
same,Potency,[3],inconclusive: 28.7 µM
same,Potency,[4],"inconclusive: 29.8 µM [cytotoxic, partial curve, poor fit]"
COc1nccnc1NS(=O)(=O)c1ccc(N)cc1,Potency,[1],inactive
same,Potency,[6],inactive
same,Potency,[3],inactive
NC(CSCC(=O)O)C(=O)O (stereo unspecified),"ratio activity, negative = inhibition",[1],inconclusive: 22.4%
same,Potency,[6],"inconclusive: 0.266 µM [cytotoxic, partial curve]"
same,Potency,[5],inactive
Cn1sccc1=O,Potency,[1],inactive
same,Potency,[2],"inconclusive: 17.2 µM [falling, partial curve]"
same,Potency,[5],inactive
same,Potency,[3],inconclusive: 43.6 µM [activator]
same,Potency,[4],inactive
CCCCC(=O)O[C@]1(C(=O)CO)[C@@H](C)C[C@H]2[C@@H]3CCC4=CC(=O)C=C[C@]4(C)[C@@]3(F)[C@@H](O)C[C@@]21C,Potency,[1],inactive
same,Potency,[2],"inconclusive: 27.3 µM [rising, partial curve]"
same,Potency,[3],inactive
COc1cc(NS(=O)(=O)c2ccc(N)cc2)nc(C)n1,"ratio activity, negative = inhibition",[1],inconclusive: 2.99%
same,Potency,[2],inactive
same,Potency,[4],"inconclusive: 4.73 µM [cytotoxic, partial curve, poor fit]"
CN(C)[C@@H]1C(=O)C(C(N)=O)=C(O)[C@@]2(O)C(=O)C3=C(O)c4c(O)cccc4C[C@H]3C[C@@H]12,Potency,[1],inconclusive: 26.6 µM [fluorescent]
same,Potency,[2],"inconclusive: 29.8 µM [rising, partial curve]"
same,Potency,[3],inconclusive: 27.6 µM
COS(=O)(=O)C(F)(F)F,Potency,[1],inconclusive: 64.4 µM [fluorescent]
same,Potency,[2],inactive
same,Potency,[3],inconclusive: 59.6 µM [activator]
same,Potency,[4],"inconclusive: 64.4 µM [cytotoxic, single point]"
Cn1c([N+](=O)[O-])cnc1COC(N)=O,Potency,[1],inactive
same,Potency,[2],inactive
same,Potency,[3],inactive
COc1nc(C)nc(NC(=O)NS(=O)(=O)c2ccccc2OCCCl)n1,Potency,[1],inactive
same,Potency,[2],inactive
same,Potency,[3],inactive
OCCN(CCO)CCN(CCO)CCO,Potency,[1],"inconclusive: 61.6 µM [activator, single point]"
same,activation,[2],inconclusive: 4.4%
same,Potency,[4],inactive
c1ccc2sc(SSc3nc4ccccc4s3)nc2c1,"ratio activity, negative = inhibition",[1],inconclusive: 0.482% [at 29.1 µM]
same,Potency,[2],active: 13 µM
same,Potency,[3],inconclusive: 15.1 µM [activator]
same,Potency,[4],"inconclusive: 3.26 µM [cytotoxic, partial curve, poor fit]"
C=CCN(CC=C)CC=C,"ratio activity, negative = inhibition",[1],inconclusive: 8.71%
same,Potency,[2],"inconclusive: 48.6 µM [rising, partial curve, poor fit]"
same,Potency,[3],inactive
CCCC(=O)O[C@]1(C(=O)CC)CC[C@H]2[C@@H]3CCC4=CC(=O)CC[C@]4(C)[C@H]3[C@@H](O)C[C@@]21C,"ratio activity, negative = inhibition",[1],inconclusive: -30.1%
same,activation,[2],inconclusive: 26.1%
same,Potency,[4],"inconclusive: 7.5 µM [cytotoxic, single point]"
CCC(=O)O,"ratio activity, negative = inhibition",[1],inconclusive: 11.5% [at 81.1 µM]
same,Potency,[2],inactive
same,Potency,[3],inconclusive: 13.1 µM [activator]
CC1=C2[C@@H]([C@H](C)CC[C@H]2/C=C(\C)C(=O)O)[C@H](O)C1,"ratio activity, negative = inhibition",[1],inconclusive: 6.51%
same,Potency,[2],inactive
same,Potency,[3],inconclusive: 61 µM [activator]
CC1(C)CCC(C)(C)c2cc(NC(=O)c3ccc(C(=O)O)cc3)ccc21,"ratio activity, negative = inhibition",[1],inconclusive: -32.5%
same,activation,[2],inconclusive: 6.23%
same,Potency,[3],"inconclusive: 33.5 µM [activator, single point]"
OCCCCCCCCCCCCBr,Potency,[1],"inconclusive: 49.7 µM [inhibitor, partial curve]"
same,Potency,[2],"inconclusive: 27.7 µM [rising, partial curve, poor fit]"
same,Potency,[5],inactive
same,Potency,[3],inconclusive: 55.8 µM [activator]
Cc1cc(O)cc(C)c1Cl,Potency,[1],inactive
same,activation,[2],inconclusive: 24.1%
same,Potency,[3],"inconclusive: 69.2 µM [activator, partial curve, poor fit]"
OC1CCC(C2CCCCC2)CC1 (stereo unspecified),"ratio activity, negative = inhibition",[1],inconclusive: 6%
same,activation,[2],inconclusive: 5.05%
same,Potency,[4],"inconclusive: 54.9 µM [cytotoxic, single point]"
C[Si](NC1CCCCC1)(NC1CCCCC1)NC1CCCCC1,Potency,[1],inactive
same,activation,[2],inconclusive: 0.909%
same,Potency,[4],inactive
